# Some of the results follow. The full chains were built here from the parent and the listed change. Inactive controls read about 0.05.
# B1: TEV protease; numbered along this chain (parent)
# chain: MGESLFKGPRDYNPISSSICHLTNESDGHTTSLYGIGFGPFIITNKHLFRRNNGTLVVQSLHGVFKVKDTTTLQQHLVDGRDMIIIRMPKDFPPFPQKLKFREPQREERICLVTTNFQTKSMSSMVSDTSCTFPSGDGIFWKHWIQTKDGQCGSPLVSTRDGFIVGIHSASNFTNTNNYFTSVPKNFMELLTNQEAQQWVSGWRLNADSVLWGGHKVFMVKPEEPFQPVKEATQL
# Variants of: B1
# Assay: raw area under fraction-flipped curve 0-4 h after induction (AUC4h, not background-subtracted), DNA-recorder readout of cleavage of the substrate (dimensionless); higher = more cleavage of the substrate by the protease variant
# Settings: temperature: 34 °C; time window: 0-4 h after rhamnose induction
# Method: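 In vivo DNA recorder in E. coli TOP10(DE3) ΔrhaA at 34 °C. Each TEVp single-site mutant (parent TEVp 0) is paired with a single-site variant of the 7-mer TEVs (canonical ENLYFQ|S). The substrate sits between flexible linkers in a Bxb1-sfGFP-TEVs-SsrA fusion, so cleavage stabilises Bxb1 and speeds flipping of a recombination array, read by NGS. The value is the raw area under the fraction-flipped curve over 0-4 h after rhamnose induction (AUC4h), with ≥20 reads per time point. It is not background-subtracted; inactive controls average about 0.047.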
# 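Also: Bxb1 expression induced with 0.2% (w/v) L-rhamnose at OD600 near 0.5, cultures sampled hourly, flipped fraction per protease–substrate barcode pair counted by paired-end Illumina sequencing.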
Variant,area with substrate ANLYFQS,area with substrate FNLYFQS,area with substrate HNLYFQS,area with substrate KNLYFQS,area with substrate LNLYFQS,area with substrate MNLYFQS,area with substrate NNLYFQS,area with substrate RNLYFQS,area with substrate TNLYFQS,area with substrate VNLYFQS
L77K,0.0479,0.0569,0.0528,0.0591,0.053,0.0563,0.0535,0.0426,0.0484,0.0554
L77P,0.0625,,0.0623,0.069,0.0638,,0.079,,0.0616,
T55V,0.0492,0.0493,0.0798,0.0104,0.053,0.1,0.0661,0.0784,0.064,0.0763
T55Q,0.0799,0.0619,0.0565,0.0645,0.0534,0.0741,0.0732,,0.0743,0.0709
P9Q,0.0636,,0.0644,0.0687,0.0808,,,,0.0669,0.0709
W141H,0.0591,0.0537,0.0315,0.0683,0.0649,0.0513,,,,0.0556
F38R,0.0522,0.0322,0.0496,0.0623,0.0715,0.0705,,,0.0617,0.0472
H29F,0.0714,,,,0.0609,0.0838,0.0713,0.0431,0.0808,
T114H,0.0552,0.0559,,,0.0276,,,,0.0587,0.0382
M83F,0.0502,0.0565,0.0613,0.156,,,0.0543,,,
Y12A,0.0511,0.0555,0.069,0.0706,,,0.0626,0.0553,0.0773,0.0658
Y12V,0.0713,0.0939,0.055,0.0704,0.0447,,0.0511,,0.0644,0.0669
E25I,0.0612,0.075,,0.0514,0.0581,0.0766,,,0.0614,
S130R,0.0402,0.0596,,,0.075,,,,0.0541,
V58P,0.0298,,,,,,,,,
H62K,0.0418,,0.0619,0,0.0714,,0.0835,,,0.0688
S121T,0.0627,,,,0.0738,,,,,
I85L,0.0751,,0.0634,0.0743,,0.0673,,0.0615,0.0715,0.078
I110E,0.0509,,,,,,0.0536,0.0561,,

Variant,area with substrate ANLYFQS,area with substrate FNLYFQS,area with substrate HNLYFQS,area with substrate KNLYFQS,area with substrate LNLYFQS,area with substrate MNLYFQS,area with substrate NNLYFQS,area with substrate RNLYFQS,area with substrate TNLYFQS,area with substrate VNLYFQS
L22G,0.0609,,0.0522,0.228,0.0464,,,,,
I86N,0.0363,,,,,,,,,
K142Y,0.0837,0.0551,,0.0958,0.0564,0.0604,,,,
P134T,0.0704,,,,0.0591,0.0759,0.0739,,,
V126T,0.0669,,0.0432,,0.0716,,,,0.0665,
R106G,0.0677,0.0701,0.0604,0.0618,0.0718,0.0628,,,0.0558,
R106K,0.0624,,0.0393,0.0575,,0.0517,,,,
R106P,0.0694,0.0548,0.0454,0.0624,,0.0385,0.0636,,0.059,
T119F,0.0662,,0.0649,0.0748,0.0735,,0.132,0.0671,0.0716,
T119M,0.0605,,,0.0665,,,,,,
T119E,0.0758,0.0402,,,,,0.0527,,,0.0745
F95M,0.0722,0.0653,,,0.0254,,,,,
F95Y,0.0484,,0.0667,,,,,0.0582,0.0742,
D137P,0.0521,,,,0.0922,,,,,0.0754
L5D,0.0593,,0.0509,,0.0797,0.0634,,,0.0332,
L5R,0.0822,,0.0563,,,,,,0.0642,0.0735
L5M,0.0616,0.0663,0.068,,0.0524,,0.0779,,0.0732,0.0707
R81H,0.0681,,0.0843,0.0542,0.0757,,0.0474,,0.0592,

# Same assay, conditions: temperature: 34 °C; time window: 0-4 h after rhamnose induction
Variant,area with substrate WNLYFQS,area with substrate INLYFQS,area with substrate GNLYFQS,area with substrate PNLYFQS,area with substrate SNLYFQS,area with substrate YNLYFQS,area with substrate DNLYFQS,area with substrate QNLYFQS
L77K,0.0565,,,,,,,
L77P,0.0601,0.0799,,,,,,
T55V,0.0506,,0.0746,0.0635,0.0654,0.0622,,
T55Q,0.0567,0.0616,0.0594,0.0659,0.0397,,0.0521,
P9Q,0.0581,0.0791,0.0975,0.0795,,0.0594,,
W141H,0.0607,0.0913,0.0658,0.0611,,,,0.066
F38R,0.0529,0.0549,,0.0641,0.0625,0.0543,,
H29F,0.0602,0.0678,,,,0.0641,,
T114H,,,,0.0727,,0.0591,,
M83F,0.071,,0.0574,0.0603,,,0.0745,0.0591
Y12A,0.0605,0.0691,0.0555,0.0556,0.0312,0.0392,,0.0583
Y12V,0.0608,,0.0527,0.0748,0.0662,,,
E25I,0.0552,0.0597,,0.0526,0.0585,0.0578,,0.0586
S130R,0.0518,0.049,0.0515,0.0596,0.0534,0.0735,0.0478,0.0666
V58P,,,,0.0264,,,,
H62K,0.0761,,,0.0989,,,,
S121T,0.0633,0.0722,,,,,,
I85L,0.057,0.0696,,0.0812,,,0.107,

Variant,area with substrate WNLYFQS,area with substrate INLYFQS,area with substrate GNLYFQS,area with substrate PNLYFQS,area with substrate SNLYFQS,area with substrate YNLYFQS,area with substrate DNLYFQS,area with substrate QNLYFQS
I110E,0.0505,,0.0506,,,0.0507,,
L22G,,,0.0488,,0.0362,0.062,,
K142Y,,,,0.0605,,0.0559,,
P134T,,0.0534,0.0638,0.0522,0.0722,,,
V126T,,0.0596,,0.0783,,0.0638,,
R106G,0.055,0.0669,0.0652,,,,,
R106K,,,0.0769,0.0707,0.0632,0.0864,,
R106P,,,,,,0.0594,,
T119F,,,,0.0704,,0.0628,,
T119M,0.0694,0.0648,0.0086,,,,,0.0482
T119E,,,0.0638,,,,,
F95M,,,0.0693,,,0.0821,,0.0625
F95Y,0.0587,,,,0.0684,,,
D137P,0.0441,0.056,,,,,0.0986,0.0722
L5D,0.0545,,,0.0602,0.075,,,
L5R,,,0.0818,0,0.0787,0.0627,,
L5M,0.0624,0.114,0.0839,0.0704,,0.061,,
R81H,0.0624,0.0657,0.0705,,0.0541,0.0487,,

# Reference: the supplement of paper PMC12217912
